In one experiment the target is T1, Red1-TAP (S. pombe) (UniProt Q9UTR8).
T1 sequence: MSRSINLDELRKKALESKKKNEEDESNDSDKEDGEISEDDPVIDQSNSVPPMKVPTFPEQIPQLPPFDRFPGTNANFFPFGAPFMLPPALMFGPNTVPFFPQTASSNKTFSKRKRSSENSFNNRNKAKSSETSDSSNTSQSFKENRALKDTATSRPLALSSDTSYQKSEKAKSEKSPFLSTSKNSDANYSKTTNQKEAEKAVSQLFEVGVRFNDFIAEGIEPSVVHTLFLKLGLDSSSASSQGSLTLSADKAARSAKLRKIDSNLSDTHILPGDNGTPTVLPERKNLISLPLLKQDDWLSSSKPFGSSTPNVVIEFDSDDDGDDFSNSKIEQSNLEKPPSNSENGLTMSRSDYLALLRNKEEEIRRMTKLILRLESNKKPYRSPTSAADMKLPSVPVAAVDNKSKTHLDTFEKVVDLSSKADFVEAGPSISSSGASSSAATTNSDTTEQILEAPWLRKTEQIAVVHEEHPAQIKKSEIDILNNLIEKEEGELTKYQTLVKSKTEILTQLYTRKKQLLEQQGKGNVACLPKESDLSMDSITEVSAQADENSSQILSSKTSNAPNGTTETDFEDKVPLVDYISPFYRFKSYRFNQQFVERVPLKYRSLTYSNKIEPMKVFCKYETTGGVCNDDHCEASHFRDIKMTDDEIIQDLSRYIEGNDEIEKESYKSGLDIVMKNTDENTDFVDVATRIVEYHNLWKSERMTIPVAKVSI
As to the kind of experiment: co-IP; soluble extracts of S. pombe grown in minimal medium; Red1-TAP held on IgG Sepharose, 2 h at 4 °C, 150 mM NaCl, 0.2% NP-40; western blot.

The target in a further experiment is T2, Red1-Myc13 (S. pombe) (UniProt Q9UTR8).
T2 sequence: T1 sequence
The experiment can be described thus: co-IP; soluble extracts of S. pombe co-expressing Red1-Myc13 and Red1-HA3 forms; anti-Myc 9E10 and Protein-G Dynabeads; western blot with anti-HA.

Experiment [1] has as its target T3, Red1, full length, yeast two-hybrid fusion (S. pombe) (UniProt Q9UTR8).
T3 sequence: T1 sequence
The experiment can be described thus: two-hybrid; Gal4 system (pDEST32 bait, pDEST22 prey) in yeast MaV203; HIS3 reporter, growth without histidine with 5-50 mM 3AT, 30 °C.

Experiment [2] concerns the target T4, Red1 L481R, I485R, full length, yeast two-hybrid fusion (S. pombe) (UniProt Q9UTR8).
T4 sequence: T1 sequence with L481R, I485R
The description is as above.

Experiment [3] has as its target Red1 390-712, yeast two-hybrid fusion (S. pombe) (UniProt Q9UTR8). Described as above.

5 molecules from PMC9402713, “Structural analysis of Red1 as a conserved scaffold of the RNA-targeting MTREC/PAXT complex” (Nature Communications, 2022) can be followed below.

Residue numbers refer to the chain shown, from its start. In names and notes the source's numbering stands. These are yes or no findings as the source states them, for the method shown. For some assays here: Binding seen in cells or lysates may run through a third protein. Some entries that bind do so weakly or less than the wild type. For some assays here: Tags and fused reporters may be left off the sequences shown.

B1: Red1-HA3 (protein, UniProt Q9UTR8 1-712)
chain: T1 sequence
For B1, the binding result with Red1-TAP (S. pombe) and with Red1-Myc13 (S. pombe) was “binds” in each case.

B2: Red1, full length, yeast two-hybrid fusion (protein, UniProt Q9UTR8 1-712)
chain: T1 sequence
As to B2, in experiment [1], the binding entry is “binds”.

B3: Red1 L481R, I485R, full length, yeast two-hybrid fusion (protein, UniProt Q9UTR8 1-712)
chain: T1 sequence with L481R, I485R
Regarding B3, in experiment [2], the binding entry is reported as “no binding”.

B4: Red1 390-712, yeast two-hybrid fusion (domain or fragment, UniProt Q9UTR8 390-712)
chain: MKLPSVPVAAVDNKSKTHLDTFEKVVDLSSKADFVEAGPSISSSGASSSAATTNSDTTEQILEAPWLRKTEQIAVVHEEHPAQIKKSEIDILNNLIEKEEGELTKYQTLVKSKTEILTQLYTRKKQLLEQQGKGNVACLPKESDLSMDSITEVSAQADENSSQILSSKTSNAPNGTTETDFEDKVPLVDYISPFYRFKSYRFNQQFVERVPLKYRSLTYSNKIEPMKVFCKYETTGGVCNDDHCEASHFRDIKMTDDEIIQDLSRYIEGNDEIEKESYKSGLDIVMKNTDENTDFVDVATRIVEYHNLWKSERMTIPVAKVSI
As for B4, the binding entry in experiment [3] and in experiment [1] was “binds” in each case.

B5: Red1-∆CC-HA3 (protein, UniProt Q9UTR8)
chain: MSRSINLDELRKKALESKKKNEEDESNDSDKEDGEISEDDPVIDQSNSVPPMKVPTFPEQIPQLPPFDRFPGTNANFFPFGAPFMLPPALMFGPNTVPFFPQTASSNKTFSKRKRSSENSFNNRNKAKSSETSDSSNTSQSFKENRALKDTATSRPLALSSDTSYQKSEKAKSEKSPFLSTSKNSDANYSKTTNQKEAEKAVSQLFEVGVRFNDFIAEGIEPSVVHTLFLKLGLDSSSASSQGSLTLSADKAARSAKLRKIDSNLSDTHILPGDNGTPTVLPERKNLISLPLLKQDDWLSSSKPFGSSTPNVVIEFDSDDDGDDFSNSKIEQSNLEKPPSNSENGLTMSRSDYLALLRNKEEEIRRMTKLILRLESNKKPYRSPTSAADMKLPSVPVAAVDNKSKTHLDTFEKVVDLSSKADFVEAGPSISSSGASSSAATTNSDTTEQILVACLPKESDLSMDSITEVSAQADENSSQILSSKTSNAPNGTTETDFEDKVPLVDYISPFYRFKSYRFNQQFVERVPLKYRSLTYSNKIEPMKVFCKYETTGGVCNDDHCEASHFRDIKMTDDEIIQDLSRYIEGNDEIEKESYKSGLDIVMKNTDENTDFVDVATRIVEYHNLWKSERMTIPVAKVSI
Take B5: the binding result with Red1-TAP (S. pombe) and with Red1-Myc13 (S. pombe) was “binds” in each case.
